Source: patent US10300036B2, “Compositions and methods for treating and preventing lung injury” (ARIZONA BOARD OF REGENTS on behalf of THE UNIVERSITY OF …, priority 2015, dated 2019)
Read-outs that look alike come from different tables or passages of the source.

What was measured:
[1] = MTT cell viability, HMVEC-L; assay type: cell-based; settings: human, HMVEC-L normal lung microvascular endothelial cells, highest dose tested (range 0.625-160 μM), read-out: decrease in viability (MTT assay)
Protocol: (§1) Bixin toxicity was measured by functional impairment of the mitochondria using 3-(4,5-dimethylthiazol-2-yl)-2,5-diphenyltetrazolium bromide (MTT) (Sigma). Cells (1×10^4) were seeded in a 96-well plate; 24 h later the cells were treated with the indicated doses of bixin for 48 h. 20 μL of 2 mg/mL MTT were directly added to the cells which were then incubated at 37° C. for 2 h. 100 μl of isopropanol/HCl were added to each well and the plate was shaken at room temperature (RT). Absorbance was measured at 570 nm using the Synergy 2 Multi-Mode Microplate Reader (Biotek).
(§2) Based on the chemical structure of bixin (FIG. 1a), it was investigated if bixin was able to induce the Nrf2 signaling pathway in lung cells. An MTT assay was first employed to determine bixin cytotoxicity in cells treated for 48 h with doses ranging from 0.625-160 μM.

[2] = system: normal human bronchial epithelial cells (NHBE); experiment: MTT cell viability, NHBE; assay type: cell-based; settings: 48 h, doses 0.625-160 μM
Protocol: as §1, §2

NRF2 signaling pathway [3] = experiment: Immunoblot of NRF2 signaling pathway proteins in H1299 cells; assay type: cell-based, human
[4] = humans, post-ingestion; cited from earlier work
NRF2 signaling pathway [5] = experiment: Pulmonary NRF2 signaling pathway activation after IP injection (IHC, immunoblot, RT-PCR of lung tissue)
[6] = system: immortalized normal bronchial epithelial cells (BEAS-2B); experiment: MTT cell viability, BEAS-2B; assay type: cell-based; settings: 48 h, doses 0.625-160 μM
Protocol: as §1, §2

[7] = system: NF-κB pathway (P65, p-P65); experiment: p-P65 immunoblot of lung tissue in ventilated mice; assay type: in vivo; settings: bixin pretreatment 200 mg/kg IP
[8] = system: immortalized normal bronchial epithelial cells (HBE); experiment: MTT cell viability, HBE; assay type: cell-based; settings: 48 h, doses 0.625-160 μM
Protocol: as §1, §2

NRF2 [9] = experiment: NRF2 protein half-life (cycloheximide chase, immunoblot) in H1299 cells; assay type: cell-based, human; settings: H1299, bixin 4 h then cycloheximide; untreated cells 19.4 min
H1299 cells = experiment: MTT cell viability, H1299; assay type: cell-based, human; settings: H1299, 48 h, doses 0.625-160 μM
Protocol: as §1, §2

[10] = system: ventilation-induced lung injury (VILI); settings: for pulmonary pathological alterations caused by ventilation (HE staining): 200 mg/kg IP 72 h before
NRF2 signaling pathway [11] = experiment: Real-time RT-PCR of NRF2 pathway mRNA in H1299 cells; assay type: cell-based, human; settings: H1299, 40 μM, 4 or 16 h
NRF2 [12] = experiment: Indirect immunofluorescence of NRF2 in H1299 cells; assay type: cell-based, human; settings: H1299, 40 μM, indicated time points
Protocol: H1299 cells were seeded on glass cover slips, 24 h were treated with bixin (40 μM) for the indicated time points. Cells were fixed with chilled methanol and incubated with anti-NRF2 antibody, then with an Alexa Fluor 488-conjugated secondary antibody. Nuclei were counterstained with DAPI. Images were obtained using a Zeiss Observer.Z1 microscope with the Slidebook 5.0 software (Intelligent Imaging Innovations).

[13] = only in ventilated Nrf2+/+ mice, bixin pretreatment
[14] = ventilated Nrf2+/+ mice, bixin pretreatment
[15] = ventilated Nrf2-/- mice, bixin pretreatment

With `COC(=O)/C=C/C(C)=C\C=C\C(C)=C\C=C\C=C(C)\C=C\C=C(C)\C=C\C(=O)O` [bixin, Bixin] the cytotoxicity at 48 h, 160 μM [1] was 20%, the “cytotoxicity (MTT assay)” value [2] was “no cytotoxicity was observed at any of the doses tested” and the “KEAP1 protein levels over time” value (NRF2 signaling pathway [3]; H1299, 40 μM, time course) was “No change was observed”. For the same compound, the “earliest time of significant induction of NRF2 protein levels” value (NRF2 signaling pathway [3]; H1299, 40 μM, time course) was 2 h, the “time of highest NRF2 protein levels” value (NRF2 signaling pathway [3]; H1299, 40 μM, time course) was 2 to 4 h and the “time of return of NRF2 protein levels to basal levels” value (NRF2 signaling pathway [3]; H1299, 40 μM, time course) was at most 24 h. For the same compound, the “GCLM protein levels over time” value (NRF2 signaling pathway [3]; H1299, 40 μM, time course up to 48 h) was “increased at 8 h and peaked between 12 and 24 h, with persistent elevation up to 48 h”, the KEAP1 expression levels (NRF2 signaling pathway [3]; H1299, 10, 20 and 40 μM, 4 h and 16 h) was “no effects were observed” and the “induction of NRF2 protein levels” value (NRF2 signaling pathway [3]; H1299, 10, 20 and 40 μM, 4 h treatment) was “dose-response effect”. For the same compound, the “induction of downstream targets HO-1 and GCLM protein levels” value (NRF2 signaling pathway [3]; H1299, 10, 20 and 40 μM, 16 h treatment) was “dose-response effect”, the “time of maximum bixin concentration in blood plasma” value [4] was 2 h and the “lung mRNA levels of Hmox1 and Gclm” value (NRF2 signaling pathway [5]; Nrf2+/+ mice (not Nrf2-/-), bixin, ventilation or the combination) was “only induced”. For the same compound, the “NRF2 pathway in lungs (IHC)” value (NRF2 signaling pathway [5]; Nrf2+/+ mice, bixin 200 mg/kg IP 72 h before 4 h ventilation) was “also activated”, the “KEAP1 in lung total protein (immunoblot)” value (NRF2 signaling pathway [5]; Nrf2+/+ mice, bixin alone or combined with ventilation) was “without affecting KEAP1” and the “lung mRNA levels of Keap1” value (NRF2 signaling pathway [5]; mice, 200 mg/kg IP) was “no effects”. The “lung mRNA levels of Nrf2” value (NRF2 signaling pathway [5]; mice, treatment groups) was “did not increase”, the “cytotoxicity (MTT assay)” value [6] was “no cytoxicity was found at any of the doses tested” and the “p-P65 accumulation in lungs” value ([7]; ventilated Nrf2+/+ mice) was “decreased p-P65 accumulation”. For the same compound, the “p-P65 accumulation in lungs” value ([7]; ventilated Nrf2-/- mice) was “very minimal effects”, the “cytotoxicity (MTT assay)” value [8] was “no cytoxicity was found at any of the doses tested” and the “half-life of NRF2 after bixin treatment” value (NRF2 [9]) was 28.9 min. For the same compound, the “cytotoxicity (MTT assay)” value (H1299 cells) was “no cytoxicity was found at any of the doses tested”, the “total BAL protein” value ([10]; Nrf2+/+ mice following high tidal volume ventilation) was “significantly decreased” and the “8-oxo-dG staining (oxidative DNA damage) in lungs” value ([10]; mouse, in vivo) was “did not have any effect”. For the same compound, the “cytotoxicity / oxidative DNA damage at the doses used in vivo” value ([10]; mouse, in vivo) was “did not elicit any cytotoxicity or generate oxidative DNA damage”, the “lung morphology (HE staining)” value ([10]; mouse, in vivo) was “did not affect the lung morphology” and the “total BAL cell number or ratio of neutrophils” value ([10]; mouse, in vivo) was “did not affect”. For the same compound, the “total BAL protein” value ([10]; mouse, in vivo) was “did not affect”, the “IL6 in BAL fluid (ELISA)” value [10, 13] was “reduced” and the “TNFα in BAL fluid (ELISA)” value [10, 13] was “reduced”. For the same compound, the “pulmonary pathological alterations caused by ventilation (HE staining)” value ([10]; ventilated Nrf2+/+ mice) was “dramatically attenuated”, the “8-oxo-dG staining in lungs” value [10, 14] was “significantly suppressed” and the “ventilation-induced neutrophil infiltration (total cells and ratio of neutrophils)” value [10, 14] was “decreased”. For the same compound, the “pulmonary pathological alterations caused by ventilation (HE staining)” value ([10]; ventilated Nrf2-/- mice) was “no improvement was observed”, the “8-oxo-dG staining in lungs” value [10, 15] was “but not” and the “ventilation-induced neutrophil infiltration (total cells and ratio of neutrophils)” value [10, 15] was “but not”. For the same compound, the survival ([10]; ventilation treatment and/or bixin injections (200 mg/kg IP)) was “All mice survived”, the “mRNA levels of NRF2 and KEAP1” value (NRF2 signaling pathway [11]) was “did not affect” and the “mRNA levels of both HMOXJ and GCLM” value (NRF2 signaling pathway [11]) was “increase significantly”. For the same compound, the “cytoplasmic and nuclear accumulation of NRF2” value (NRF2 [12]) was “increased cytoplasmic and nuclear accumulation of NRF2”.
